This note sets out measurements from article PMC6753376.

For part of its entries the source gives two or more results. The list is limited to them. The source may hold further records. Some entries list several cross-links; each record is another pair of residues.

Chain of CCT6A (P40227 whole entry): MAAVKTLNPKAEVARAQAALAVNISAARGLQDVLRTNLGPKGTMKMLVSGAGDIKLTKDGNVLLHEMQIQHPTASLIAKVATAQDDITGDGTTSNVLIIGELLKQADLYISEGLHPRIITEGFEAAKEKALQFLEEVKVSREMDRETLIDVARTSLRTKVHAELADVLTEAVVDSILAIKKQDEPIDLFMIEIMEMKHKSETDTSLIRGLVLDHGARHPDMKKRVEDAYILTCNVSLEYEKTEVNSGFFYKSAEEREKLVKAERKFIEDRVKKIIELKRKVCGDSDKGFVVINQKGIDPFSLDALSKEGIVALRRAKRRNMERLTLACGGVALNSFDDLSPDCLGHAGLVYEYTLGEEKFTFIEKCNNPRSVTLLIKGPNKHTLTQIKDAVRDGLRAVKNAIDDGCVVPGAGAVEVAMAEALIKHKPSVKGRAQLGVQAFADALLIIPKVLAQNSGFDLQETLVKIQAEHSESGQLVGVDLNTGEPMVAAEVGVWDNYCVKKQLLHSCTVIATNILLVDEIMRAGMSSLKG
Chain of TCP1 (P17987 whole entry): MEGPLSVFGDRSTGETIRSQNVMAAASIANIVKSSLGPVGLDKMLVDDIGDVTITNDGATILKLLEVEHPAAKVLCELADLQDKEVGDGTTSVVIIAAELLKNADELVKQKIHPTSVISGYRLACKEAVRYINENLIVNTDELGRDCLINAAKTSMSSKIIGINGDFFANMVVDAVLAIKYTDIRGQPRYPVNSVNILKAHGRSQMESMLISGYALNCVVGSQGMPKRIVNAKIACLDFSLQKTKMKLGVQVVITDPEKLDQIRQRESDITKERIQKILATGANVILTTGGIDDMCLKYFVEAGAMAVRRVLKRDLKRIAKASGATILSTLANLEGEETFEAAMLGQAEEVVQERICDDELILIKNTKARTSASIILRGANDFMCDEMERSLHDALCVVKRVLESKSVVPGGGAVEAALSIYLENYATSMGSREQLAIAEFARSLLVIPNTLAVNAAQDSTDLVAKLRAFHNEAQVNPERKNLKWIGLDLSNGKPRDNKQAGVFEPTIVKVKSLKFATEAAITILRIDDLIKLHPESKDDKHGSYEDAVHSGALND
Chain of CCT3 (P49368 whole entry): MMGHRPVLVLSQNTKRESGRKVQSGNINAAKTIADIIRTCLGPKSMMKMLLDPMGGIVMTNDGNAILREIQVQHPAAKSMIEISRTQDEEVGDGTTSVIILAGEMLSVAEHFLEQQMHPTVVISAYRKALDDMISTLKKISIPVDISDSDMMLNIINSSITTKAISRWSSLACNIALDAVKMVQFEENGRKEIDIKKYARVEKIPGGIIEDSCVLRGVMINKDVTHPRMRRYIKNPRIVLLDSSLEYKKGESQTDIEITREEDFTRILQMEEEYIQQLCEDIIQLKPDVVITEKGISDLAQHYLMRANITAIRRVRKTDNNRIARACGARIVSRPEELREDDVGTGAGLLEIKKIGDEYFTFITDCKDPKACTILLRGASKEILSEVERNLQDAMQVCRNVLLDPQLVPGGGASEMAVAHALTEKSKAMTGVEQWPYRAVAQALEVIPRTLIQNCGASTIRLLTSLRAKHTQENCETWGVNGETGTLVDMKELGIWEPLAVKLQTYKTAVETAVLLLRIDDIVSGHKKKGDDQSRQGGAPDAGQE

The assay addresses CCT8 (UniProt P50990). In words: cross-linking mass spectrometry. As to conditions: lysate.
Chain of UniProt P50990 (P50990 whole entry): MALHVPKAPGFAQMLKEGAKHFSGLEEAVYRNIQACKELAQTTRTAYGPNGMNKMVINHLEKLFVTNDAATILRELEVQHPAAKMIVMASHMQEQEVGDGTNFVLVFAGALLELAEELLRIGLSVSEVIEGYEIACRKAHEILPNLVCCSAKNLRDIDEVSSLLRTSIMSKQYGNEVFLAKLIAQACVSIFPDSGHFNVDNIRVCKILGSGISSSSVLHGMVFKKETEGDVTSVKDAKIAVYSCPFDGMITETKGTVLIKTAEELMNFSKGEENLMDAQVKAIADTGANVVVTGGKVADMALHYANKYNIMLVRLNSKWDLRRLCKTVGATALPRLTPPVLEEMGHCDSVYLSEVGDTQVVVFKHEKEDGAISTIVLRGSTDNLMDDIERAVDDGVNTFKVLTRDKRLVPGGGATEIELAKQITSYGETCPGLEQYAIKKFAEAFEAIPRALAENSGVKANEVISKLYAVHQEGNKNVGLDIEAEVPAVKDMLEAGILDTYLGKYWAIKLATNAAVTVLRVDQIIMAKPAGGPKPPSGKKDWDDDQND
In the case of TCP1, P17987, the cross-linked residues entry was “K466 - K466 and K494 - K459 and K494 - K466”.
The result for CCT3, P49368 reads “K21 - K16 and K21 - K20 and K21 - K459”.
The result for CCT6A, P40227 reads “K197 - K400 and K199 - K400 and S200 - K400 and K359 - K326 and K359 - K400”.
